# Test results taken from PMC12136788.
# The other results are listed elsewhere or left out.
# T1: UNK ZnF1-3 (human, UniProt Q9C0B0 31-174)
# T1 sequence: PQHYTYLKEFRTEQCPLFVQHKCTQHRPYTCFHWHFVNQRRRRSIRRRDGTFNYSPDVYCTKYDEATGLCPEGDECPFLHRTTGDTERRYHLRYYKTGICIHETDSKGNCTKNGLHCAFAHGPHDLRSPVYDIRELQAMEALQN
# B1: chr10:34018870:34018871:+_ENSMUSG00000039485_ENSMUST00000047935|mus_mus|motif|central (ssRNA)
# RNA: GGGAGUUCUACAGUCCGACGAUCACGGUUCUUCACAGUACAUAGAUAUCGGGAACACAGCAGAAAGUAUGAAGCCUGGCGGGUUCUUGGUAAGAAUGUGUCAAGCUUUCUUGUGGCAGAGAACCACUUAAAAAAAAAAAUGAACAACAGAGGAUUGAGCAUCA
# B2: 61442556_61442676_1405_CDS_ENSG00000126814_ENST00000261249|human|control|control (ssRNA)
# RNA: GGGAGUUCUACAGUCCGACGAUCGAGGAAGUCUUUCCCAUCCAAGUUGAAGACUUUCACCUUUUGGUCCACUUUAUUUAAUUUACAGUUGUACAACAGCCAUUUAUGAGAUUCAGGAUUGAGAUCAUUGGCAAAUACAGUGCACAACAGAGGAUUGAGCAUCA
# B3: chr18:60570258:60570259:+_ENSG00000081913_ENST00000262719|hu_hu|FALSE|FALSE (ssRNA)
# RNA: GGGAGUUCUACAGUCCGACGAUCCUUAUUGUCUCGUAGGUCAAGCUGAGUAACAUGCUGUAGAAAGUCCACUUCAUCUGCUAUCAGCUUCCUAAUUACGUUCAACCUUAGAUCCACAUGUUUAAUGUGAGGCAUUUUUCUUAACAACAGAGGAUUGAGCAUCA
# B4: chrX:102931600:102931601:-_ENSG00000123562_ENST00000441076|hu_mus|motif|central (ssRNA)
# RNA: GGGAGUUCUACAGUCCGACGAUCGUCCUCCACCAGCCACGGUUUUAAUUCUUCAGGGAUCUUCACCUUCACCUCCAUCCGGCUCUUGAAUGCCUCCUCGCUCUCCACAGUGGGGUCAGCCCGUGCCCUUUUCUUCCGAGGGGGCAACAGAGGAUUGAGCAUCA
# B5: chr2:230636304:230636305:-_ENSG00000153827_ENST00000389045|hu_hu|motif|central (ssRNA)
# RNA: GGGAGUUCUACAGUCCGACGAUCGUACUGAAGAUGACUGAGUGGGAAGACUGAUUCAAAUCCAUCUCUGAACGAAUCAAAUUGCCGGGAAACGCCUUCAUUUAGUGCCCAGAAUAUAACCAGUCUUAGAUACUCCUCUAAAUUCAACAGAGGAUUGAGCAUCA
# B6: chr8:30643436:30643437:-_ENSG00000104695_ENST00000221138|hu_mus|FALSE|FALSE (ssRNA)
# RNA: GGGAGUUCUACAGUCCGACGAUCGAAUUCUUAAAAAAUAAAACUCCAACUCUAUAAUCCAUGCCAGUUAAACUUGUUAACUAAAUUUCCAAGUAAGCGCAAAGGAGACGAAGCAGUCAGUGACCCUUUUUGCUUAACCAGUCACAACAGAGGAUUGAGCAUCA
# B7: 29788120_29801711_2703_CDS_ENSG00000197321_ENST00000375400|human|control|control (ssRNA)
# RNA: GGGAGUUCUACAGUCCGACGAUCCUCCUCUCUCACAGUGAUGAGCUGCUUCCUCUCCUCAAUCGUCAUUUGGCUCUCUCGACUUUCUGUGACCCGCUUCUUGAUGAGGGACCGCCCUGCUUCCUGGGUGUGCAGGCUGCUGGCCAACAGAGGAUUGAGCAUCA
# B8: 180814855_180814975_3466_3pUTR_ENSMUSG00000016346_ENSMUST00000149964|mouse|control|control (ssRNA)
# RNA: GGGAGUUCUACAGUCCGACGAUCCAGUGCCACACCAGGAAAAAGCAGAGGCCAUGAAGUGUCAACUCAUACCUUCUGGGCUACAGUGCCAGGGAUGAGCCAGCCAGAACCUGCUGAAGAAACCUUUUCAGAAAAGGCUGUGAGCAACAGAGGAUUGAGCAUCA
# B9: chr1:115275314:115275315:-_ENSG00000009307_ENST00000339438|hu_mus|motif|central (ssRNA)
# RNA: GGGAGUUCUACAGUCCGACGAUCAACCUCUAUGUUGGUUGCUCGUUCCAAUUUGUCACGUCGGUCUGUUGAAAUAUUAAACCGGACAUGGUCACCUUCCAGCAGGGUCACUUUGGAUUUUGUGUCUUUGUCUCCAAAGGGAAGCAACAGAGGAUUGAGCAUCA
# B10: chr2:32530853:32530854:+_ENSG00000119820_ENST00000437765|hu_hu|FALSE|FALSE (ssRNA)
# RNA: GGGAGUUCUACAGUCCGACGAUCAAACAGAAUUUAAAAUUCUGACCCAAAAAUCCCAGAUAACUGCAAUUGCUUAAUUAAAUACAAAAAAAAAUUGUUUUAAAAAGCGCUUAGACUUCCCUUUCCAUCUGGAACAUGUAAAAUCAACAGAGGAUUGAGCAUCA
# B11: chr12:39763582:39763583:-_ENSG00000139116_ENST00000544797|hu_mus|FALSE|FALSE (ssRNA)
# RNA: GGGAGUUCUACAGUCCGACGAUCCUCUAGGAACUGGGCAUUCACUUUGAAUUCAGGAGGGGGCAGCCCGUUUUUAAUCGCUGAGGUCUUUUUCUCAUCAAUACUCUUGAACAGGUGUCUAACAGCACGAGAGAUGAUGCCCUGCAACAGAGGAUUGAGCAUCA
# B12: chr14:89338683:89338684:+_ENSG00000165533_ENST00000346301|hu_hu|hu_hu_hu_mus_False|38_108 (ssRNA)
# RNA: GGGAGUUCUACAGUCCGACGAUCGUGGUUGUUGUUGACCAGGGCCAGCCUGAAGCAUUGGUGGGCCAAGUUUGUAUCUCCGAUUCCCACAGCUAUGUGUCCCAAGUUGUACCAGACAUCAGCUGCCUCUUCUUCAUUUUCAGCCAACAGAGGAUUGAGCAUCA
# B13: chr14:66974463:66974464:+_ENSMUSG00000022044_ENSMUST00000074523|mus_hu|mus_mus_mus_hu_False|1_8 (ssRNA)
# RNA: GGGAGUUCUACAGUCCGACGAUCUUGUAGGACGACUUAUUCAGGGGAUCGGCCAGGAAGCAGGAGCAGAACAAGGACACCAGCGGGAGCUCCUUCAUCUUCUCUUUGUAGGCAGCAAGGGUCAUGUUGGCUGGAAUCUGGUGGCAACAGAGGAUUGAGCAUCA
# B14: chr2:217001844:217001845:+_ENSG00000079246_ENST00000392132|hu_hu|hu_hu_hu_mus_False|78_98 (ssRNA)
# RNA: GGGAGUUCUACAGUCCGACGAUCACCAACUUGAGGAUUAGCUCUUUUGUCAUAAGCAUAUCGAACUAUGGCGACCAUGUUUAACUCAUCCAAAGCAUGAACGAGAGAGGAAAGGGCAACAGCUGCCGCCUCAUCAUCCUUUGCCAACAGAGGAUUGAGCAUCA
# Biological target: T1, UNK ZnF1-3
# Experiment: nsRBNS (natural sequence RNA bind-n-seq); RBNS binding buffer (assumed for nsRBNS): 25 mM Tris pH 7.5, 150 mM KCl, 3 mM MgCl2, 0.01% Triton X-100, 500 ug/ml BSA, 20 U/ml SUPERase-In, 4 C; UNK is unkempt and MSI1 is Musashi-1; names of the RNAs are library labels; protein concentration not given here; high values mean tight binding
row,Binder,binding signal
1,B1,1.68 enrichment R
2,B2,1.35 enrichment R
3,B3,0.782 enrichment R
4,B4,0.926 enrichment R
5,B5,1.03 enrichment R
6,B6,0.856 enrichment R
7,B7,0.745 enrichment R
8,B8,1.59 enrichment R
9,B9,0.634 enrichment R
10,B10,1.23 enrichment R
11,B11,1.75 enrichment R
12,B12,0.722 enrichment R
13,B13,2.33 enrichment R
14,B14,2.01 enrichment R
